According to PMC4336329 (PLoS ONE, 2015):
Screen size: about 310,000 compounds; about 2,200 (0.71%) showed an effect of 50% or more. The effect is printed as a negative number. The list shows a part of the results.

Target: human ether-à-go-go-related gene (hERG) potassium channel (human, UniProt Q12809)
Assay: primary screen, population patch clamp on CHO cells stably expressing hERG

Sequence of human ether-à-go-go-related gene (hERG) potassium channel (Q12809 whole entry, looked up): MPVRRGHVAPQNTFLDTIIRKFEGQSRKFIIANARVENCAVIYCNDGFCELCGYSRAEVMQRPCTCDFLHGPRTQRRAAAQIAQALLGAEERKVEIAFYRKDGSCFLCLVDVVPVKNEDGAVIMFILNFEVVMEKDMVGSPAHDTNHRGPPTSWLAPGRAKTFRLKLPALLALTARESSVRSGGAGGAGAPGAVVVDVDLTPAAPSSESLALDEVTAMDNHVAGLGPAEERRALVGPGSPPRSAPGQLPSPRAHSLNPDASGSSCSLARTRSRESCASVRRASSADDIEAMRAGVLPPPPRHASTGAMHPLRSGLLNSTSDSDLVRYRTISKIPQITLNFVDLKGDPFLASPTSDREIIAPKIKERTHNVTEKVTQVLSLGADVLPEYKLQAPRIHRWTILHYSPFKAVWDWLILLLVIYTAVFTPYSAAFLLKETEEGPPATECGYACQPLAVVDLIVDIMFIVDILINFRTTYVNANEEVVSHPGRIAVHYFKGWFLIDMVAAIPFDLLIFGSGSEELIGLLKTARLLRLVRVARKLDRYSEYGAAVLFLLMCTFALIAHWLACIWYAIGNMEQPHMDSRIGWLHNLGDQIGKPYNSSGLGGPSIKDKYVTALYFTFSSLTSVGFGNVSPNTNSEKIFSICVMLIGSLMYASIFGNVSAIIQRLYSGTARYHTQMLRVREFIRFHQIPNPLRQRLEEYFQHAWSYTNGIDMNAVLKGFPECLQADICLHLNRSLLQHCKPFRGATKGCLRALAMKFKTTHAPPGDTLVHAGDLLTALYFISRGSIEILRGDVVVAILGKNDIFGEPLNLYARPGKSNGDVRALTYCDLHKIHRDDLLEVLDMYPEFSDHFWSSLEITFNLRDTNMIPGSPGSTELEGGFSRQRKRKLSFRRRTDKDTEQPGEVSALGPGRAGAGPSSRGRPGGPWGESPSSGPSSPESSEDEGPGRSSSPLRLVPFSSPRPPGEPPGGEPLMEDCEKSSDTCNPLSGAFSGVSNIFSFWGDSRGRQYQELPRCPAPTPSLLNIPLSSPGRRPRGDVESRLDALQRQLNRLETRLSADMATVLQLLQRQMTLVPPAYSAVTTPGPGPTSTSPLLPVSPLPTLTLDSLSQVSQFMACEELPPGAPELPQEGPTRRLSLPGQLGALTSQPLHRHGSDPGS

Compared with `COc1ccccc1C(=O)Oc1cc(N)n(S(=O)(=O)c2ccc(C)cc2)n1`, `Cc1ccc(C(=O)CSc2nc(-c3ccccc3)ccc2C#N)cc1` is lower in “hERG current change (%, negative = inhibition) at 1uM” value: 10.2% for the first, 5.19% for the second.

First: O=C(c1cccc(S(=O)(=O)N2CCCCC2)c1)N1CCN(c2ccccc2)CC1
Second: O=[N+]([O-])c1ccc(CS(=O)(=O)N2CCN(c3ccccc3)CC2)cc1
The “hERG current change (%, negative = inhibition) at 1uM” value of the first is higher: 0.3% for the first, -3.45% for the second.

Going from `O=C(Nc1ccccc1C(=O)NC(Cc1ccccc1)C(=O)NC1CCCCC1)c1ccccc1` (centres unmarked) to `CCC(C)C(NC(=O)C1CCC(=O)N1C(=O)OCc1ccccc1)C(=O)NC(Cc1ccccc1)C(N)=O` (centres unmarked), the “hERG current change (%, negative = inhibition) at 1uM” value falls from 8.22% to 3.26%.

First: CCOC(=O)C1CCCN(S(=O)(=O)c2c(C)noc2C)C1 (centres unmarked)
Second: COc1cccc(/C=C/C(=O)OCC(=O)NCC2CCCCC2)c1OC
The “hERG current change (%, negative = inhibition) at 1uM” value of the first is lower: 3.45% for the first, 8.8% for the second.

First: N#CC1=C(S)N=C(N)C(c2nc(-c3ccccc3)cs2)C12CCCC2 (centres unmarked)
Second: C[n+]1c(-c2ccccc2)sc([S-])c1-c1ccccc1
The “hERG current change (%, negative = inhibition) at 1uM” value of the first is higher: 8.21% for the first, 5.05% for the second.

Compared with `Cc1ccc(NC(=O)C2(c3ccccc3)CC2(Cl)Cl)cc1C` (centres unmarked), `Cc1ccc(C)c(NC(=O)CSc2nnc(-c3ccccc3)n2N)c1` is lower in “hERG current change (%, negative = inhibition) at 1uM” value: 14.3% for the first, 3.45% for the second.

First: COc1ccc(NS(=O)(=O)c2cccc(C(=O)NNC(=O)CNC(=O)c3ccccc3)c2)cc1
Second: CN(c1ccccc1)S(=O)(=O)c1ccc(C(=O)Nc2nccs2)cc1
The “hERG current change (%, negative = inhibition) at 1uM” value of the first is lower: 9.98% for the first, 16.1% for the second.

Going from `Cc1ccc(-n2nc3c(=O)n(CCCC(=O)NCC(C)c4ccccc4)nc(C)c3c2C)cc1` (centres unmarked) to `COc1ccc(-c2noc(CCC(=O)NCCc3ccccc3)n2)cc1OC`, the “hERG current change (%, negative = inhibition) at 1uM” value rises from 2.55% to 8.44%.

First: COc1ccccc1CC1(C)NC(=O)N(CC(=O)N2CC(C)OC(C)C2)C1=O (centres unmarked)
Second: CC(=O)C1(C)OC(N)=C(C#N)C(c2ccccc2)C1(C#N)C#N (centres unmarked)
The “hERG current change (%, negative = inhibition) at 1uM” value of the first is higher: 10.3% for the first, 1.02% for the second.

First: COc1ccc(/C=N/NC(=O)NC23CC4CC(CC(C4)C2)C3)c(OC)c1
Second: COc1ccc(OC)c(Nc2nc(-c3sc(N)nc3C)cs2)c1
The “hERG current change (%, negative = inhibition) at 1uM” value of the first is higher: 12.4% for the first, 7.91% for the second.

First: COc1ccc(-c2nc(CCl)cs2)cc1OC.Cl
Second: COc1cc(O)c2c(=O)c3c(OC)c(O)ccc3oc2c1
The “hERG current change (%, negative = inhibition) at 1uM” value of the first is lower: -3.28% for the first, 13.9% for the second.

Compared with `Cl.O=C(CNCC1CCCCC1)Nc1ccc(OC(F)(F)F)cc1`, `CCOc1ccc(OCc2ccc(C(=O)NC(C)(C)C)o2)cc1` is higher in “hERG current change (%, negative = inhibition) at 1uM” value: -26.3% for the first, 9.28% for the second.

Compared with `CCC(C)COC(c1ccccc1)(c1ccccc1)C(Oc1nc(C)cc(C)n1)C(=O)O` (centres unmarked), `C/C(=N\NC(=O)Cn1c(-c2ccccn2)nc2ccccc21)c1cccc(O)c1` is lower in “hERG current change (%, negative = inhibition) at 1uM” value: 15.4% for the first, 10.9% for the second.

First: NC(=O)C1CCN(Cc2cccc(OCc3ccccc3)c2)CC1.O=C(O)C(=O)O
Second: Cc1ccc(OCc2nc(-c3ccccc3)no2)cc1
The “hERG current change (%, negative = inhibition) at 1uM” value of the first is lower: 7.21% for the first, 12.3% for the second.

Compared with `CC(C)=CC(=O)OCC(=O)Nc1ncc(Cl)c(C)c1Cl`, `COC(=O)c1sc(NC(=O)c2cccc([N+](=O)[O-])c2)c(C(N)=O)c1C` is lower in “hERG current change (%, negative = inhibition) at 1uM” value: 5.43% for the first, 3.91% for the second.

Compared with `CN(C)CCn1nnnc1SCC1=C(C(=O)O)N2C(=O)[C@@H](NC(=O)Cc3csc(N)n3)[C@H]2SC1.Cl`, `O=C(CNC(=O)c1cccs1)NC1=NCCS1` is lower in “hERG current change (%, negative = inhibition) at 1uM” value: 14% for the first, 5.78% for the second.

First: CC(=O)O[C@@]1(C)C[C@@H](O)[C@]2(O)C=CO[C@@H](O[C@@H]3O[C@H](CO)[C@@H](O)[C@H](O)[C@H]3O)[C@@H]21
Second: CN(C)S(=O)(=O)c1cccc(COC(=O)c2ccc3c(c2)OCO3)c1
The “hERG current change (%, negative = inhibition) at 1uM” value of the first is higher: 14.8% for the first, 6.23% for the second.

Going from `C#CCSc1nnc(-c2sc3ccccc3c2Cl)o1` to `Clc1ccc(-n2ncc3c(NCc4cccs4)ncnc32)cc1`, the “hERG current change (%, negative = inhibition) at 1uM” value falls from 8.28% to 0.512%.

First: CN(Cc1ccc(Cl)cc1)C(=O)CCl
Second: O=C(NCCc1ccc(F)cc1)Nc1ccc2c(c1)OCO2
The “hERG current change (%, negative = inhibition) at 1uM” value of the first is higher: 13.3% for the first, 8.27% for the second.

Going from `O=C(NCc1ccco1)c1cccn2c(=O)c3c4c(sc3nc12)CCCC4` to `Cc1ccc(CS(=O)Cc2ccc(C(=O)NCc3cccs3)o2)cc1` (centres unmarked), the “hERG current change (%, negative = inhibition) at 1uM” value falls from 12% to 1.89%.

Going from `Cc1ccc(C)c(NC(=O)CN(C)C(=O)[C@@H](NC(=O)c2ccc(C(C)(C)C)cc2)C(C)C)c1` to `CC(C)C(OC(=O)c1cccs1)C(=O)NCc1cccs1` (centres unmarked), the “hERG current change (%, negative = inhibition) at 1uM” value falls from 8.03% to 0.277%.

First: Cc1cc(C(=O)NCc2cccs2)c(C)o1
Second: NC(=O)C1(C(N)=O)OC1c1ccc(Cl)cc1Cl (centres unmarked)
The “hERG current change (%, negative = inhibition) at 1uM” value of the first is lower: -4.89% for the first, 13.3% for the second.
